Test results as given in PubChem BioAssay AID485364 (National Center for Advancing Translational Sciences (NCATS), 2010).
About 11,000 (3.1%) of roughly 360,000 compounds were called active. The inconclusive results got no clear call from the source; some entries with a clear call stand among them for comparison. Calls follow the shape of the dose curve; as a rule, active = well fitted inhibition curve with a large enough effect; inconclusive = small, poorly fitted or top-dose-only effect; inactive = no such curve, though single readings can be large or run the other way. Potencies of inconclusive entries are left out as doubtful fits.

Biological target: Schistosoma mansoni thioredoxin glutathione reductase (TGR) (UniProt Q962Y6)
Assay: qHTS Assay for the Inhibitors of Schistosoma Mansoni Peroxiredoxins; also: nearly all actives have a fitted effect of over 60% in size
Conditions: purified TGR, DTNB reduction, TNB absorbance 405 nm; activity change, negative = inhibition: at 114 µM (top of the series) unless noted
How it was run: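 Kinetic colorimetric format: TGR-catalysed, NADPH-driven DTNB reduction monitored via TNB absorbance. Enzyme dispensed at 20 nM; compound exposure 15 min at room temperature before reaction start.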
% is scaled to controls: 0 for no effect and ±100 for the full control effect; potency is read from the fitted curve at half-maximal effect; tags tell the direction and shape of the fitted curve.

Structure (SMILES)	Potency	activity change, negative = inhibition
CSCCC(NS(=O)(=O)c1ccc2c(c1)oc(=O)n2C)C(=O)NC1CCN(Cc2ccccc2)CC1 (configuration not stated)	inconclusive [inhibitor, single point]	–
Cc1cc(N=Cc2c(O)ccc3ccccc23)no1	inconclusive [inhibitor, partial curve]	–
COCCOC(=O)C1=C(N)Oc2c(oc(CO)cc2=O)C1c1c(F)cccc1Cl (configuration not stated)	–	inactive: 9.94%
COc1cccc(NC(=O)CSc2nc3ccccc3cc2Cc2ccccc2)c1	–	inactive: 7.65%
Cc1ccc(C2C(C#N)=C(N)Oc3c2sc2ccccc32)o1 (configuration not stated)	inconclusive [inhibitor, partial curve, poor fit]	–
CC1=C(CC(=O)c2ccc(Cl)cc2)C(=O)c2ccccc2C1=O	inconclusive [inhibitor, partial curve]	–
Cc1cc(C(=O)O)ccc1-c1ccc(/C=C2\SC(=O)N(CC(=O)Nc3ccc4c(c3)OCO4)C2=O)o1	inconclusive [inhibitor, single point]	–
C=C1CC[C@@H]2[C@](C)(CO)[C@H](O)CC[C@@]2(C)[C@@H]1/C=C/C1=CCOC1=O	active: 39.8 µM	–
Cc1cc(-c2n[nH]c(=S)n2-c2ccccc2)nn1C	–	inactive: -14.3%
Cc1ccccc1CNC(=O)c1ccc(-n2c(C)cc3c2CCCC3)cc1	inconclusive [inhibitor, partial curve]	–
COc1cc(/C=C2\C(=O)ON=C2c2ccccc2)cc(OC)c1OC	active: 8.91 µM	–
CN(CCc1ccccc1)C(=O)CCc1nnc(Cc2ccc3c(c2)OCO3)o1	inconclusive [inhibitor, partial curve]	–
Cc1nn(-c2ccc3nncn3n2)c(C)c1CCC(=O)Nc1ccc(OC(F)(F)F)cc1	–	inactive: 1.07%
O=C(Nc1nc2ccc(F)cc2s1)C1CCN(S(=O)(=O)c2cc([N+](=O)[O-])ccc2Cl)CC1	inconclusive [inhibitor, partial curve]	–
COc1cccc(C(C#N)N2N=C(C)CC2(C)C)c1O (configuration not stated)	inconclusive [inhibitor, partial curve]	–
COc1ccc(CCNC(=O)NCc2noc3ccccc23)c(OC)c1	inconclusive [inhibitor, single point]	–
C[n+]1cccc(C2C(C#N)=C(N)Oc3c2ccc2ccccc32)c1 (configuration not stated)	active: 39.8 µM	–
COc1cc(NC(=O)c2cccs2)c(C(=O)OCC(=O)NCc2ccco2)cc1OC	inconclusive [inhibitor, partial curve]	–
CCCn1c(CCC(=O)O)ccc1-c1ccc(F)cc1	inconclusive [inhibitor, partial curve]	–
O=S(=O)(c1ccccc1)N1CCN(c2ncnc3sc(-c4ccccc4)cc23)CC1	–	inactive: -11.6%
O=C1NC(=Nc2ccccc2)S/C1=C\c1ccccc1	–	inactive: -2.49%
Cc1ccccc1NP(=O)(c1ccccc1)c1nc2ccccc2s1 (configuration not stated)	–	inactive: 6.66%
Cn1c(N)c(C(=O)COC(=O)c2ccc([N+](=O)[O-])o2)c(=O)n(C)c1=O	inconclusive [inhibitor, partial curve]	–
Cc1ccc(CNC(=O)[C@@H]2CCC(=O)N2Cc2ccco2)cc1	inconclusive [inhibitor, partial curve]	–

Structure (SMILES)	Potency	activity change, negative = inhibition
O=C(O)c1ccc(COc2c(F)c(F)cc(F)c2F)o1	active: 35.5 µM	–
O=C(O)CCCCCn1c(SCC(=O)c2ccc(O)c(O)c2)nc2ccsc2c1=O	–	inactive: -1.34%
COc1ccc(Cn2nnnc2C(c2ccncc2)N2CCOCC2)cc1 (configuration not stated)	active: 25.1 µM	–
Cc1ccc(NC(=S)NC(=O)C2CC2)cc1Cl	inconclusive [inhibitor, full curve]	–
CC(=O)Oc1ccc2c(c1)C(=O)c1ccccc1CO2	inconclusive [inhibitor, full curve, poor fit]	–
COc1ccc(C(=O)NCCc2ccc(F)cc2)cc1OC	–	inactive: -0.957%
CCOC(=O)C1=C(CSc2nc(CC)c(C)cc2C#N)OC(N)=C(C#N)C1c1ccc(OC)cc1 (configuration not stated)	inconclusive [inhibitor, partial curve]	–
CCCN(C(=O)c1cc2c(Cl)nc3ccccc3c2s1)c1cccc(C)c1	–	inactive: -10.7%
Oc1ccc(N2CCN(Cc3c(-c4ccccc4)nc4ccccn34)CC2)cc1	inconclusive [inhibitor, partial curve]	–
CC(CCN(C)C)OC(=O)c1ccc(C(C)c2ccccc2)o1 (configuration not stated)	inconclusive [inhibitor, partial curve]	–
O=C(NC1CCCN(CCc2ccccc2)C1)c1c[nH]c2ccccc12 (configuration not stated)	–	inactive: -0.625%
O=C(NC(=S)Nc1cccc(C(F)(F)F)c1)c1ccc2nonc2c1	inconclusive [inhibitor, full curve]	–
CN1CCN(/N=C/c2nc(-c3ccccc3)n3ccccc23)CC1	inconclusive [inhibitor, partial curve]	–
COc1cc(OC)c(OC)cc1CNC(=O)c1ccc(COc2ccccc2)cc1	–	inactive: -0.919%
Cc1cc(-c2ccccc2)nc(N/N=C/c2ccc([N+](=O)[O-])cc2)n1	inconclusive [inhibitor, single point]	–
Cc1[nH]c2ccccc2c1Cc1nnc(SCC(N)=O)o1	active: 44.7 µM	–
CCC(CC)C(=O)OCC(=O)Nc1cccc([N+](=O)[O-])c1	–	inactive: -0.375%
O=C1C(Cl)=C(NCc2cccnc2)C(=O)c2ccccc21	active: 44.7 µM	–
COc1ccc(CC(=O)NCC(=O)N=Nc2c(O)[nH]c3ccccc23)cc1	–	inactive: 13.9%
O=C(NCc1cccc(Cl)c1)c1ccc(N2CC3CC(C2)c2cccc(=O)n2C3)c(NC(=O)c2cccnc2)c1 (configuration not stated)	–	inactive: -9.03%
O=C(O)CCc1ccc(-c2cccs2)n1-c1ccc(C(=O)O)cc1	active: 7.94 µM	–
CN(C)C(CNC(=O)c1cccnc1Sc1ccccc1)c1ccco1 (configuration not stated)	inconclusive [inhibitor, full curve]	–
CCOC(=O)CNC(=O)CNC(=O)C(Cc1ccc(N(CCCl)CCCl)cc1)NC(C)=O (configuration not stated)	inconclusive [inhibitor, full curve, poor fit]	–
